{"source": "PubChem BioAssay AID504332", "about": "(National Center for Advancing Translational Sciences (NCATS), 2011)", "note": "In all, about 350,000 compounds went through this assay and about 31,000 (8.9%) were called active. The shares of active, inactive and inconclusive entries below differ from those in the screen. The call rests on the fitted dose curve; in most records, active means well fitted inhibition curve with a large enough effect; inconclusive means small, poorly fitted or top-dose-only effect; inactive means no such curve, though single readings can be large or run the other way. Where the call is inconclusive, the potency comes from a doubtful curve fit. On the % scale 0 is the no-effect control and ±100 the full control effect; potency means the concentration at half of the fitted maximal effect; tags describe the fitted curve by direction and shape."}
{"biological_target": "Histone-lysine N-methyltransferase EHMT2 (Homo sapiens) (UniProt Q96KQ7)", "sequence (Q96KQ7 whole entry, looked up)": "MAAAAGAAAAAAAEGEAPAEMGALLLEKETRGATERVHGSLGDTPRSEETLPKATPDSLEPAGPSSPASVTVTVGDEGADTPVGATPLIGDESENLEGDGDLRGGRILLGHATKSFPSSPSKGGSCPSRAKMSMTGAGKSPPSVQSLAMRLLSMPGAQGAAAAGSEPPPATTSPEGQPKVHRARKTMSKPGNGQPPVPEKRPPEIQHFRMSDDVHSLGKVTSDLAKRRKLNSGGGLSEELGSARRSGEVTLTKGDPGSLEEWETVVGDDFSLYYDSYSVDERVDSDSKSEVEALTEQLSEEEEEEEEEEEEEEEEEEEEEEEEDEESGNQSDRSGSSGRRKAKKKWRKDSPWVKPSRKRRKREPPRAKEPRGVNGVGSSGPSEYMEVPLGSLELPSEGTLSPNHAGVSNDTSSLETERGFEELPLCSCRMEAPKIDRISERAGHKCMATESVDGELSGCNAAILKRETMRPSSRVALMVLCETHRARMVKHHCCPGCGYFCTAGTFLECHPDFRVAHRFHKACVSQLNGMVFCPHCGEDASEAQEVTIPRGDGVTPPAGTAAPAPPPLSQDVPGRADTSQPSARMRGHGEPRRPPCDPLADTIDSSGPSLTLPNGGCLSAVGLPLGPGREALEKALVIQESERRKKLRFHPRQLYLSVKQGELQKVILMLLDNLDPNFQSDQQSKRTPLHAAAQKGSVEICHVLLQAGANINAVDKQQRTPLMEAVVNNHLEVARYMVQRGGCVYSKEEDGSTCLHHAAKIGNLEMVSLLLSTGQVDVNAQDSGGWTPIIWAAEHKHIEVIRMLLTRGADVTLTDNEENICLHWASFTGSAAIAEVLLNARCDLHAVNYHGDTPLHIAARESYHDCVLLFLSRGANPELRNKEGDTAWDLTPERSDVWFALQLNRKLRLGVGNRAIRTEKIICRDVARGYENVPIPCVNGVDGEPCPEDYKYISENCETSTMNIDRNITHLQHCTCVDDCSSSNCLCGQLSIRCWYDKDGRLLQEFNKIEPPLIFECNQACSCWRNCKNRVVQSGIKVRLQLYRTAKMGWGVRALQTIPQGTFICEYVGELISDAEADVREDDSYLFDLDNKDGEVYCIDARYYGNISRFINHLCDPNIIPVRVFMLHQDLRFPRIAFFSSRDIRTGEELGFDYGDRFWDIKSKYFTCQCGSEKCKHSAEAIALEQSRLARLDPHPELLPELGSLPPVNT", "experiment": "qHTS Assay for Inhibitors of Histone Lysine Methyltransferase G9a; further: nearly all actives have a fitted effect of over 75% in size", "details": "G9a H3K9 monomethylation, AlphaScreen, 2 h; activity, negative = inhibition: at 59 µM (top of the series) unless noted", "how_it_was_run": "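AlphaScreen detection with an anti-monomethyl H3K9 antibody quantified product after a 2 h room-temperature reaction containing 500 nM biotinylated H3K9 peptide, 20 µM SAM and 20 nM enzyme, which had been preincubated 15 min with compound.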"}
{"compound": "O=S(=O)(c1cccc(C(F)(F)F)c1)n1c(/C=C/c2ccccc2)nc2ccccc21", "activity, negative = inhibition": "inactive: 3.34%"}
{"compound": "Cc1ccc(C(NC(=O)N2CCN(C)CC2)C(Cl)Cl)cc1F", "note": "(configuration not stated)", "Potency": "inconclusive: 89.1 µM [inhibitor, single point]"}
{"compound": "CCn1c(SCC(=O)Nc2ccc3c(c2)OCO3)nc2c1c(=O)n(C)c(=O)n2C", "activity, negative = inhibition": "inactive: 11.8% [at 2.33 µM]"}
{"compound": "CC(=O)Nc1nc(CC(C)C)cc(-c2ccco2)c1C#N", "Potency": "active: 15.8 µM"}
{"compound": "CCOC(=O)C1CCN(c2c(Nc3ccc4c(c3)OCCO4)c(=O)c2=O)CC1", "Potency": "inconclusive: 79.4 µM [inhibitor, single point]"}
{"compound": "O=C(CSc1nnc(CNC(=O)c2cccs2)o1)c1ccc(Cl)cc1", "Potency": "inconclusive: 56.2 µM [inhibitor, partial curve, poor fit]"}
{"compound": "CSCC[C@H](NC(=O)NCc1ccccc1F)C(=O)O", "Potency": "active: 44.7 µM"}
{"compound": "Cn1c(=O)c(C(=O)NCC2CCCO2)c(O)c2ccccc21", "note": "(configuration not stated)", "activity, negative = inhibition": "inactive: -39.3% [at 102 µM]"}
{"compound": "O=[N+]([O-])c1ccc2c(c1)CNc1ccccc1O2", "Potency": "inconclusive: 89.1 µM [inhibitor, partial curve, poor fit]"}
{"compound": "COc1ccc(-c2nn3c(=O)cc(CN4CCN(C(=O)Nc5ccc(C)c(Cl)c5)CC4)nc3s2)cc1", "activity, negative = inhibition": "inactive: 0.365%"}
{"compound": "Fc1ccccc1NC(=S)NCc1ccccc1", "Potency": "inconclusive: 89.1 µM [inhibitor, single point]"}
{"compound": "COc1ccc(C(=O)COC(=O)c2cccc(-n3cnnn3)c2)c(OC)c1", "Potency": "inconclusive: 44.7 µM [inhibitor, partial curve, poor fit]"}
{"compound": "CN1CCN(CCC(=O)Nc2ccc(C3CCCC3)cc2)CC1", "Potency": "active: 31.6 µM"}
{"compound": "C=CCC1NS(=O)(=O)OCC1NC(=O)OCC(Cl)(Cl)Cl", "note": "(configuration not stated)", "activity, negative = inhibition": "inactive: 19.4% [at 102 µM]"}
{"compound": "CC(C)OCCCNC(=O)CCCn1c(SCC(=O)c2ccc(F)cc2)nc2c(sc3ccccc32)c1=O", "activity, negative = inhibition": "inactive: -30.5%"}
{"compound": "Cc1onc(-c2ccccc2)c1C(=O)N/N=C/C(Br)=C/c1ccccc1", "Potency": "inconclusive: 89.1 µM [inhibitor, single point]"}
{"compound": "O=C1C(Cl)=C(N2CCCCC2)C(=O)N1c1ccccc1", "activity, negative = inhibition": "inconclusive: -61.6% [inhibitor] [at 12.7 µM]"}
{"compound": "COCCn1c(Sc2ccc(C)cc2)nc2c1c(=O)[nH]c(=O)n2C", "Potency": "inconclusive: 0.794 µM [inhibitor, single point]"}
{"compound": "CN1C(C(=O)Nc2ccc(C(=O)O)cc2)=C(O)c2ccccc2S1(=O)=O", "Potency": "inconclusive: 7.08 µM [inhibitor, single point]"}
{"compound": "CCOC(=O)CSC1=C(C#N)C(c2ccccc2F)C(C(C)=O)=C(C)N1", "note": "(configuration not stated)", "Potency": "inconclusive: 70.8 µM [inhibitor, single point]"}
{"compound": "O=C(CCN1CCCCCC1)Nc1cccc(F)c1", "Potency": "inconclusive: 89.1 µM [inhibitor, single point]"}
{"compound": "COc1ccc(-c2cc(C3CCN(Cc4cccc(C(F)(F)F)c4)CC3)[nH]n2)cc1", "Potency": "inconclusive: 39.8 µM [inhibitor, partial curve]"}
{"compound": "COc1ccc(CN2CCNC(=O)C2CC(=O)NC2CCCC2)cc1OC", "note": "(configuration not stated)", "Potency": "active: 70.8 µM"}
{"compound": "CCc1nc(SCc2cccnc2)c2c(=O)n(C)c(=O)n(C)c2n1", "Potency": "inconclusive: 31.6 µM [inhibitor, partial curve, poor fit]"}
{"compound": "C=CCOc1c(Br)cc(CNn2c(C)n[nH]c2=S)cc1OC", "Potency": "active: 11.2 µM"}
{"compound": "O=C(O)CNC(=O)/C(=C/c1ccco1)NC(=O)/C=C/c1ccccc1", "Potency": "inconclusive: 39.8 µM [inhibitor, partial curve, poor fit]"}
{"compound": "CCCCN(C)C1=Nc2cccc3cccc1c23", "Potency": "active: 10 µM"}
{"compound": "Cc1c(C(=O)NCc2ccccc2)sc2nc3n(c(=O)c12)CCC3", "Potency": "inconclusive: 17.8 µM [inhibitor, partial curve, poor fit]"}
{"compound": "CSc1ncccc1C(=O)N(C)CC(=O)Nc1cccc(F)c1", "Potency": "inconclusive: 89.1 µM [inhibitor, single point]"}
{"compound": "COc1cc(CNCCSc2nnnn2C)cc(Br)c1OCc1ccccc1", "Potency": "inconclusive: 79.4 µM [inhibitor, single point]"}
{"compound": "Cc1cc2c(cc1S(=O)(=O)N1CCN(c3ccc(Cl)cc3)CC1)OCCN2C", "Potency": "active: 28.2 µM"}
{"compound": "Cc1nonc1NC(=O)CSc1nnnn1-c1ccccc1", "activity, negative = inhibition": "inactive: 5.62% [at 102 µM]"}
{"compound": "Cc1nc2ccc(S(=O)(=O)NCC(=O)NCCN3CCCCCC3)cc2s1", "Potency": "inconclusive: 35.5 µM [inhibitor, single point]"}
{"compound": "COc1cc(CNn2cn[nH]c2=S)cc(Cl)c1OCc1ccccc1", "Potency": "active: 10 µM"}
{"compound": "Cc1ccc(/C=N/n2c(C3CCCCC3)n[nH]c2=S)cc1", "Potency": "active: 10 µM"}
{"compound": "C/C(=N\\Nc1ccc(F)cc1F)c1ccc(N2CCOCC2)cc1", "Potency": "active: 7.94 µM"}
{"compound": "C=CCNC(=O)/C(C#N)=C\\c1cc(Cl)c(O)c(OCC)c1", "Potency": "active: 11.2 µM"}
{"compound": "CC(=O)Nc1ccc(NC(=O)c2ccc([N+](=O)[O-])cc2Cl)cc1", "Potency": "inconclusive: 35.5 µM [inhibitor, partial curve, poor fit]"}
{"compound": "Clc1ccc(N/N=C/c2ccncc2)cc1Cl", "Potency": "inconclusive: 89.1 µM [inhibitor, single point]"}
{"compound": "CC(C)(C)C(=O)N1CCN(c2nc3ccc(Br)cc3s2)CC1", "Potency": "inconclusive: 100 µM [inhibitor, single point]"}
{"compound": "Cc1ccc(CNC(=O)N2CCN(S(=O)(=O)c3ccccc3)CC2)cc1", "activity, negative = inhibition": "inactive: 35.5% [at 102 µM]"}
{"compound": "O=C(/C=C/c1cccc(Cl)c1)NCCCN1CCOCC1", "activity, negative = inhibition": "inactive: -2.99% [at 102 µM]"}
{"compound": "Cc1ccc(S(=O)(=O)NCC2CCC(C(=O)O)CC2)cc1", "note": "(configuration not stated)", "Potency": "inconclusive: 0.708 µM [inhibitor, full curve, poor fit]"}
{"compound": "O=C(O)CCC(=O)Nc1sc2c(c1C(=O)Nc1cccc3ccccc13)CCCCC2", "Potency": "active: 22.4 µM"}
{"compound": "O=C(COC(=O)c1ccccc1Cl)Nc1ccc2[nH]c(=O)[nH]c2c1", "activity, negative = inhibition": "inactive: -34% [at 102 µM]"}
{"compound": "CN(C)CCNC(=O)CCCN1C(=O)c2cccnc2Oc2ccc(Cl)cc21", "activity, negative = inhibition": "inactive: -6.2%"}
{"compound": "COc1ccc(N2CCN(C(=O)c3ccc(CS(=O)(=O)c4ccc(Br)cc4)o3)CC2)cc1", "Potency": "inconclusive: 89.1 µM [inhibitor, single point]"}
